The other results are listed elsewhere or left out. No stated cut-off is given here; in the data, active = 3.2 or more and inactive = the rest. Only a few entries rise above the background.
B1: VHL_HUMAN_112 (peptide)
chain: TGRRIHSYRGHLWLF
B2: BCAR1_HUMAN_664_YA (peptide)
chain: EGGWMEDYDAVHLQG
B3: VGFR1_HUMAN_1053_YA (peptide)
chain: DIAKNPDYVRKGDTR
B4: UFO_HUMAN_703 (peptide)
chain: KIYNGDYYRQGRIAK
B5: VGFR1_HUMAN_1327 (peptide)
chain: CCSPPPDYNSVVLYS
B6: UGGG2_HUMAN_1289_YA (peptide)
chain: AKEAGFRYELVQARW
B7: UFO_HUMAN_866 (peptide)
chain: EVHPAGRYVLCPSTT
B8: URP2_HUMAN_504 (peptide)
chain: SAEGLNPYGLVAPRF
B9: VAV1_HUMAN_160 (peptide)
chain: VEEDEDLYDCVENEE
B10: BCLF1_HUMAN_219 (peptide)
chain: IWPGLSAYDNSPRSP
B11: BCLAF1_HUMAN_93 (peptide)
chain: GRYHRGGYRPVWNRR
B12: VGFR2_HUMAN_1059_YA (peptide)
chain: DIAKDPDYVRKGDAR
B13: VAMP7_HUMAN_45 (peptide)
chain: SENNKLTYSHGNYLF
B14: VGFR2_HUMAN_1175 (peptide)
chain: AQQDGKDYIVLPISE
B15: VGFR1_HUMAN_914_YA (peptide)
chain: VIVEACKYGNLSNAL
B16: BCLAF1_HUMAN_93_YA (peptide)
chain: GRAHRGGYRPVWNRR
B17: VGFR1_HUMAN_1053 (peptide)
chain: DIYKNPDYVRKGDTR
B18: VGFR1_HUMAN_914 (peptide)
chain: VIVEYCKYGNLSNYL
B19: ABCB7_HUMAN_340_YA (peptide)
chain: AIDSLLNYETVKAFN
B20: VGFR2_HUMAN_1305_YA (peptide)
chain: GSNQTSGYQSGAHSD
B21: VGFR2_HUMAN_1054_YA (peptide)
chain: FGLARDIYKDPDAVR
B22: VAMP7_HUMAN_45_YA (peptide)
chain: SENNKLTYSHGNALF
B23: VGFR2_HUMAN_1054 (peptide)
chain: FGLARDIYKDPDYVR
B24: VAV3_HUMAN_173 (peptide)
chain: EDEGGEVYEDLMKAE
B25: VGFR2_HUMAN_996 (peptide)
chain: EEAPEDLYKDFLTLE
B26: VGFR3_HUMAN_1333 (peptide)
chain: ARGGQVFYNSEYGEL
B27: VGFR2_HUMAN_1059 (peptide)
chain: DIYKDPDYVRKGDAR
B28: VAV_HUMAN_844 (peptide)
chain: VEEDYSEYCGGGGGG
B29: UFO_HUMAN_779 (peptide)
chain: ADCLDGLYALMSRCW
B30: VGFR2_HUMAN_1305 (peptide)
chain: GSNQTSGYQSGYHSD
B31: BCLAF1_HUMAN_150 (peptide)
chain: SSRSSSPYSKSPVSK
B32: VGFR3_HUMAN_833 (peptide)
chain: EQCEYLSYDASQWEF
B33: UFO_HUMAN_703_YA (peptide)
chain: KIANGDAYRQGRIAK
B34: VAV3_HUMAN_141 (peptide)
chain: SINDEDIYKGLPDLI
B35: VGFR3_HUMAN_1265 (peptide)
chain: FPMTPTTYKGSVDNQ
B36: VAV1_HUMAN_267_YA (peptide)
chain: TPGAANLYQVFIKAK

Biological target: SHP2 C-SH2 domain E139D
Test: enrichment score (SH2-bound / input frequency) (ratio); bacterial display of known human phosphotyrosine sites (pTyr-Var adds point mutants) read by sequencing; higher = stronger binding; tyrosines were phosphorylated by kinases first
Details: peptide library: Human pTyr
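Further: displayed peptides selected on beads carrying the immobilized SH2 domain, with library peptides lacking any tyrosine serving as negative controls.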

Enrichment score, inactive:
B1 1.7
B2 0.645
B3 0.833
B4 1.28
B5 0.836
B6 1.56
B7 0.946
B8 1.07
B9 1.23
B10 0.746
B11 0.824
B12 0.787
B13 1.02
B14 0.789
B15 1.68
B16 0.781
B17 1.26
B18 1.81
B19 0.579
B20 0.607
B21 0.991
B22 0.761
B23 1.06
B24 1.27
B25 1.56
B26 0.778
B27 0.847
B28 0.823
B29 1.09
B30 0.605
B31 0.708
B32 1.52
B33 1.34
B34 0.758
B35 0.641
B36 1.4

Biological target: SHP2 C-SH2 domain wild-type
Test: as above
Details: peptide library: Human pTyr

Enrichment score, inactive:
B1 0.539
B2 0.574
B3 0.766
B4 1.52
B5 0.697
B6 1.24
B7 0.93
B8 0.941
B9 1.34
B10 0.813
B11 0.664
B12 0.652
B13 1.27
B14 0.6
B15 1.57
B16 0.598
B17 0.89
B18 1.45
B19 0.573
B20 0.583
B21 0.789
B22 0.639
B23 0.928
B24 1.17
B25 1.69
B26 0.673
B27 0.851
B28 0.786
B29 0.971
B30 0.549
B31 0.644
B32 1.47
B33 1.14
B34 0.756
B35 0.588
B36 1.86

Biological target: SHP2 N-SH2 domain L43F
Test: as above
Details: peptide library: Human pTyr

Enrichment score, inactive:
B1 0.908
B2 0.577
B3 0.904
B4 1.27
B5 0.867
B6 1.16
B7 0.865
B8 1.04
B9 1.57
B10 0.762
B11 0.763
B12 0.67
B13 0.961
B14 0.463
B15 1.6
B16 0.706
B17 0.951
B18 1.55
B19 0.626
B20 0.579
B21 0.667
B22 0.8
B23 1.11
B24 1.11
B25 1.71
B26 0.688
B27 0.841
B28 1.08
B29 1.4
B30 0.521
B31 0.582
B32 1.25
B33 0.983
B34 0.72
B35 0.777
B36 1.68

Biological target: SHP2 N-SH2 domain T42A
Test: as above
Details: peptide library: Human pTyr

Enrichment score, inactive:
B1 0.568
B2 0.807
B3 0.854
B4 1.22
B5 0.783
B6 1.17
B7 0.914
B8 1.06
B9 1.12
B10 0.568
B11 0.647
B12 0.813
B13 0.984
B14 0.733
B15 1.68
B16 0.675
B17 1.11
B18 1.36
B19 0.573
B20 0.502
B21 0.734
B22 0.678
B23 0.907
B24 1.23
B25 1.34
B26 0.622
B27 0.755
B28 0.881
B29 1.05
B30 0.582
B31 0.515
B32 1.37
B33 1.25
B34 0.746
B35 0.718
B36 1.66

Biological target: SHP2 N-SH2 domain T52S
Test: as above
Details: peptide library: Human pTyr

Enrichment score, inactive:
B1 0.314
B2 0.68
B3 0.866
B4 1.22
B5 0.85
B6 1.42
B7 1.09
B8 0.941
B9 1.35
B10 0.647
B11 0.736
B12 0.884
B13 0.946
B14 0.644
B15 1.5
B16 0.816
B17 1.01
B18 1.73
B19 0.592
B20 0.577
B21 0.711
B22 0.861
B23 0.939
B24 1.3
B25 1.4
B26 0.704
B27 0.804
B28 0.896
B29 1.21
B30 0.678
B31 0.681
B32 1.71
B33 1.34
B34 0.678
B35 0.718
B36 2.07

Biological target: SHP2 N-SH2 domain wild-type
Test: as above
Details: peptide library: Human pTyr

Enrichment score, inactive:
B1 0.702
B2 0.497
B3 0.988
B4 1.64
B5 0.978
B6 1.39
B7 1.02
B8 1.14
B9 1.21
B10 0.591
B11 0.732
B12 0.758
B13 1.16
B14 0.691
B15 1.76
B16 0.624
B17 0.911
B18 1.81
B19 0.58
B20 0.622
B21 1.08
B22 0.781
B23 0.871
B24 1.23
B25 1.76
B26 0.7
B27 1.17
B28 0.997
B29 1.18
B30 0.651
B31 0.738
B32 1.63
B33 1.39
B34 0.74
B35 0.57
B36 1.45

Source: the supplement of paper PMC10369915
